No constants are given. Whether binding was seen depends on the method and setting. Binding seen in cells or lysates may run through a third protein. Some binding calls cover weakened binding; strength is not graded here.
target: GST fusion of the SET domain of Enhancer of zeste, GST-E(z)SET (Drosophila) (UniProt P42124); experiment: pull-down; 1 μg GST-E(z)SET or GST-TrxSET immobilised on GSH-agarose, mixed 2 h at 4 °C with pre-cleared reticulocyte lysate holding 35S-Asx or its deletion fragments; washes with 0.6 M NaCl, pH 7.9; SDS-PAGE and autoradiography, densitometry relative to GST; only the target purified

Binder	binding
Asx NH2 terminal residues 1-354, E(z)/Trx SET domain interaction site 1 (AsxETSI-1), 35S-labelled, in vitro translated (domain or fragment, UniProt Q9V727 1-354, 35S-methionine labelled) MKTITPDTTTTTSSQHQQLLIPQADQHHQPMLQQQSLLAAPPPTMIMEHVNLVDDDEKDPLALEQLEVSPSTKHTHSLRRHLPRIIVKPIPPEKKPMAPSEEAAVSTAPAPPTRLICSRRIQQQQQVKAAAAAAAAAAAAAAAAAAAAQAQATSSYPSAISPGSKAGTSQASTMREVLASIPGFSVKPRRRSNKKLTTAAQIEQTKDGKIDLETPDSILASTNLRALLNKQTFSLLPPLYQYNLIQLLPSVDREASELEQPSSSASGGSPSEAIRLSASCLNNEFFARACLEWRERLSEGEFTPENQLKLKTEAEREKNKLDPWKLKHFEPFWGEKNSRGKDKDKLESDCKNQK	binds
Asx COOH terminal residues 1200-1501, E(z)/Trx SET domain interaction site 2 (AsxETSI-2), 35S-labelled, in vitro translated (domain or fragment, UniProt Q9V727 1200-1501, 35S-methionine labelled) MQQLPNVLTMKTLPPSGVPTTIAQQRLQPKMPTGKGRKATSNRLPPGAVNLERSYQICQAVIQNSPNRENLKAQLRPPAAILNQHQPTTTTAPAPINPVTLNVSTVAATPMSNITTATGSMAAAVAAAPPQNVLKQEELLVSGAVGAGALPAGLPPNVMGVGRPGVYKVIGPRMSGFPRKKYVQRKPSPTTLIRHVFSPGPGGATATAQQLQMLQQHHQSTTSPVPVQNPQQPAPEQLIHQNGNGQYVLVHRANVGAADNQAPRASSAPPMHQNQFVTVQNPLHSINGIPMGGRGRPASVDT	binds
Asx COOH terminal deletion mutant A(1-1200), 35S-labelled, in vitro translated (domain or fragment, UniProt Q9V727 1-1200, 35S-methionine labelled) MKTITPDTTTTTSSQHQQLLIPQADQHHQPMLQQQSLLAAPPPTMIMEHVNLVDDDEKDPLALEQLEVSPSTKHTHSLRRHLPRIIVKPIPPEKKPMAPSEEAAVSTAPAPPTRLICSRRIQQQQQVKAAAAAAAAAAAAAAAAAAAAQAQATSSYPSAISPGSKAGTSQASTMREVLASIPGFSVKPRRRSNKKLTTAAQIEQTKDGKIDLETPDSILASTNLRALLNKQTFSLLPPLYQYNLIQLLPSVDREASELEQPSSSASGGSPSEAIRLSASCLNNEFFARACLEWRERLSEGEFTPENQLKLKTEAEREKNKLDPWKLKHFEPFWGEKNSRGKDKDKLESDCKNQKLSASIKSEPKPPATSQQKPLQQATCDNETELKFDLSTKCETTSAKTTVAVAVADKSSTFPPTGSQNNVLNEQQRRVLKRPSSSPSQRKQAPTTIATINLDDDLDELPSTSKDSKQPKMDEIVPNASGNVVAAPMVDVVDHSAVEMKIKDEQQHQRQHQPLINSTCDKIEPSECSKEMIVAMKQVDSKEDVDSIASAAAMPAIAAVTPHTPKPEALAPNPDVANQFVSYLQNVELAAETKAPLDNSNEADITTGTNSHDFVFSDTIDHAYFQEHQSTINHNFFTSSSSSNTATTAANKLEEHSDKPEDSPLPIASSISGSTPASSITSTSCTSSSSSSASMSSSCSSSNSGSTTTAPTTSSSAGAPTAPLTLAAAAETTLANVQAMLSTVAKLQQQQQELPVELNSNEMYQHVQHDWNFGDIKLSSSQSSGDQQRNLSHEAIDLMDVVQDADVIDDIMHNDVCHDVLGDEDEGDQEEDEDDEVVECMTEEQQLIDEDSEAVREIVDKLQQHQQQQNQQQHHQQLHIQDVVQLAQHSFMPQAHSEFGNDIGQEMLCDAVPMSAAEMEVSSTVITNSSNSNDSSNNISLCSSTNSLTINQMPHQASQQPQQNAQSNAQQQRQILVDSNGQIIGNFLLQQQRQQQQQQLLQQFTLQAAAAQQQQQQQQQHQQQQQQQQQATSSNSLGKTLPVALRNGTQQFLSPNLIAQQHQQQQQQQLEQHQQQATAQQKHQQIQQFALQQAQLHQRQLLAQAANNNLLQQQQQQQQNVALPTTQAKFIAKPLNIISMTRPANASPTTAATTANTASIPSAYANVVAVTGAQQQQSPPVPAPQQQTVQQQQLANHNSNM	no binding
Asx deletion fragment A(1-200), 35S-labelled, in vitro translated (domain or fragment, UniProt Q9V727 1-200, 35S-methionine labelled) MKTITPDTTTTTSSQHQQLLIPQADQHHQPMLQQQSLLAAPPPTMIMEHVNLVDDDEKDPLALEQLEVSPSTKHTHSLRRHLPRIIVKPIPPEKKPMAPSEEAAVSTAPAPPTRLICSRRIQQQQQVKAAAAAAAAAAAAAAAAAAAAQAQATSSYPSAISPGSKAGTSQASTMREVLASIPGFSVKPRRRSNKKLTTAA	no binding
Asx deletion fragment A(200-354), 35S-labelled, in vitro translated (domain or fragment, UniProt Q9V727 200-354, 35S-methionine labelled) AQIEQTKDGKIDLETPDSILASTNLRALLNKQTFSLLPPLYQYNLIQLLPSVDREASELEQPSSSASGGSPSEAIRLSASCLNNEFFARACLEWRERLSEGEFTPENQLKLKTEAEREKNKLDPWKLKHFEPFWGEKNSRGKDKDKLESDCKNQK	no binding
Asx deletion fragment A(1381-1501), 35S-labelled, in vitro translated (domain or fragment, UniProt Q9V727 1381-1501, 35S-methionine labelled) YVQRKPSPTTLIRHVFSPGPGGATATAQQLQMLQQHHQSTTSPVPVQNPQQPAPEQLIHQNGNGQYVLVHRANVGAADNQAPRASSAPPMHQNQFVTVQNPLHSINGIPMGGRGRPASVDT	no binding
